# Measurements as given in the supplement of paper PMC9446081.
# Hit rate of the full screen: of about 39,000 compounds, about 220 (0.56%) showed activity. The list shows a part of the results.
# Test system: Escherichia coli K-12 BW25113
# Assay: relative growth (OD600 normalised to plate interquartile mean) (fraction); higher = less growth inhibition, active = 0.2 or less
# Conditions: 50 µM; LB; incubation time: overnight (16-24 h)
# 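Further: static incubation at 37 °C against the wild-type strain, values averaged over two biological replicates.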
row,SMILES,relative growth
1,Nc1nnc(CC(=O)N2CCCCC2)o1,inactive: 1
2,C[C@@H]1CN([C@@H](C)CO)C(=O)c2cccc(NC(=O)Nc3ccc(C(F)(F)F)cc3)c2O[C@@H]1CN(C)Cc1ccccc1,inactive: 0.995
3,COc1ccc(C(=O)Nc2ccc3c(c2)C(=O)N(C)[C@@H]2CC[C@H](CC(=O)NCC4CC4)O[C@H]2CO3)cc1,inactive: 1.03
4,C[C@H]1CN([C@@H](C)CO)C(=O)c2cccc(NC(=O)CCCCCC(=O)Nc3ccccc3N)c2O[C@@H]1CN(C)Cc1ccc(-c2ccccc2)cc1,inactive: 0.867
5,Cc1ccc(S(=O)(=O)Nc2ccc3c(c2)C(=O)N([C@H](C)CO)C[C@@H](C)[C@@H](CN(C)CC2CC2)O3)cc1,inactive: 0.986
6,C[C@@H]1CN([C@H](C)CO)C(=O)c2cc(NC(=O)Nc3ccccc3)ccc2O[C@@H]1CN(C)Cc1ccc(Oc2ccccc2)cc1,inactive: 1.01
7,CNC(=O)C(=O)Nc1ccc(C)c(F)c1,inactive: 0.975
8,CCCNC(=O)N1C[C@H](C)[C@H](OC)CN(C)C(=O)c2ccc(NS(=O)(=O)CC(F)(F)F)cc2OC[C@@H]1C,inactive: 0.963
9,Nc1ncn(C[C@@H](O)CO)c2nc(Br)nc1-2,inactive: 0.957
10,C[C@@H]1CN([C@@H](C)CO)S(=O)(=O)c2ccc(C#C[C@@H](C)O)cc2O[C@@H]1CN(C)C,inactive: 0.978
11,C[C@H]1O[C@@H](O[C@H]2[C@@H](O)C[C@H](O[C@H]3[C@@H](O)C[C@H](O[C@H]4CC[C@@]5(C)[C@H](CC[C@@H]6[C@@H]5C[C@@H](O)[C@]5(C)[C@@H](C7=CC(=O)OC7)CC[C@]65O)C4)O[C@@H]3C)O[C@@H]2C)C[C@H](O)[C@@H]1O,inactive: 1.04
12,COc1ccccc1NC(=O)N(C)C[C@H]1Oc2ncc(C#CC(C)C)cc2C(=O)N([C@H](C)CO)C[C@@H]1C,inactive: 0.982
13,C[C@@H]1CCCCO[C@@H](CN(C)C(=O)NC2CCCCC2)[C@H](C)CN([C@H](C)CO)C(=O)c2cc(NS(=O)(=O)c3cccs3)ccc2O1,inactive: 0.994
14,C[C@@H]1CCCCO[C@H](CN(C)Cc2ccc(Cl)c(Cl)c2)[C@@H](C)CN([C@H](C)CO)C(=O)c2cc(NC(=O)c3ccccc3)ccc2O1,inactive: 1.05
15,C[C@@H]1CN([C@H](C)CO)C(=O)c2cc(NC(=O)Cc3ccccc3)ccc2O[C@@H](C)CCCCO[C@H]1CN(C)Cc1ccc(Cl)c(Cl)c1,inactive: 0.992
16,C[C@@H]1CN([C@@H](C)CO)C(=O)CCCn2cc(nn2)CO[C@H]1CN(C)S(=O)(=O)c1ccccc1C#N,inactive: 0.992
17,CCC[C@@H](O)C#Cc1cnc2c(c1)C(=O)N([C@H](C)CO)C[C@H](C)[C@H](CN(C)S(=O)(=O)c1cccc(F)c1)O2,inactive: 1.03
18,CC(=O)NCc1nnnn1C1CCCCC1,inactive: 0.964
19,Nc1c(C(=O)c2ccccc2)no[n+]1[O-],inactive: 0.963

row,SMILES,relative growth
1,Cc1noc(C)c1NC(=O)N(C)C[C@H]1Oc2ccc(NS(C)(=O)=O)cc2CC(=O)N([C@H](C)CO)C[C@H]1C,inactive: 1.02
2,C[C@@H]1CN([C@H](C)CO)C(=O)Cc2cc(N(C)C)ccc2O[C@H]1CN(C)S(=O)(=O)c1cn(C)cn1,inactive: 0.994
3,C[C@H]1CN([C@@H](C)CO)C(=O)c2cc(C3=CCCCC3)cnc2O[C@@H]1CN(C)S(=O)(=O)c1cn(C)cn1,inactive: 0.99
4,C[C@@H]1CN([C@@H](C)CO)C(=O)Cc2cc(NC(=O)C3CCCCC3)ccc2O[C@@H]1CN(C)C(=O)Nc1cccc2ccccc12,inactive: 0.987
5,C[C@@H]1CCCCO[C@@H](CN(C)Cc2ccc(C(F)(F)F)cc2)[C@H](C)CN([C@@H](C)CO)C(=O)c2cc(NC(=O)Nc3ccc4c(c3)OCO4)ccc2O1,inactive: 1.01
6,Cc1noc(C)c1S(=O)(=O)N(C)C[C@@H]1Oc2ccc(NC(=O)C3CC3)cc2CC(=O)N([C@H](C)CO)C[C@H]1C,inactive: 0.987
7,O=C(CN1CCOCC1)N[C@@H]1CC[C@H](CCNS(=O)(=O)c2ccccc2F)O[C@H]1CO,inactive: 0.979
8,C=CCOC(=O)[C@@H]1[C@H]2C(=O)O[C@H](c3ccccc3)[C@H](c3ccccc3)N2[C@H](c2ccc(OCCOC(=O)NCCCCCC(=O)NO)cc2)[C@]12C(=O)Nc1ccccc12,inactive: 1
9,C[C@@H]1CCCCO[C@@H](CN(C)CC2CC2)[C@H](C)CN([C@@H](C)CO)C(=O)c2cc(NC(=O)Nc3ccc(F)cc3)ccc2O1,inactive: 1.01
10,C[C@@H]1CCCCO[C@@H](CN(C)C(=O)Cc2ccccc2)[C@H](C)CN([C@H](C)CO)C(=O)c2cc(NS(=O)(=O)c3ccc(F)cc3)ccc2O1,inactive: 1.03
11,C[C@@H]1CN([C@@H](C)CO)C(=O)c2cc(NS(=O)(=O)c3ccc(F)cc3)ccc2O[C@@H](C)CCCCO[C@H]1CN(C)Cc1ccc(C(=O)O)cc1,inactive: 0.984
12,COC(=O)[C@H](Cc1ccccc1)N1CC2=CCCC=C[C@H]2[C@@H]1[C@@H](O)CCn1cc(-c2ccc(C(=O)NO)cc2)nn1,inactive: 0.98
13,C[C@@H]1CN([C@@H](C)CO)C(=O)c2cc(N(C)C)ccc2O[C@@H](C)CCCCO[C@H]1CN(C)S(C)(=O)=O,inactive: 0.998
14,C[C@H](CO)N1C[C@H](C)[C@@H](CN(C)C(=O)Nc2ccc(C(F)(F)F)cc2)Oc2ccc(NC(=O)Nc3ccc4c(c3)OCO4)cc2C1=O,inactive: 1.03
15,CO[C@H](CN(C)C(=O)C1CCOCC1)[C@H](C)CN(C(=O)Nc1ccc(C(F)(F)F)cc1)[C@H](C)CO,inactive: 0.812
16,C=C1C[C@@]23CC[C@@H]4[C@@](C)(CCC[C@@]4(C)C(=O)OC)[C@H]2CC[C@@H]1C3,inactive: 0.988
17,CS(=O)(=O)N1C[C@@H](O)COC[C@H]2O[C@H](CC(=O)NCCc3ccncc3)CC[C@@H]21,inactive: 0.981
18,Cn1cnc(S(=O)(=O)N[C@H]2CC[C@@H](CC(=O)Nc3ccccc3)O[C@@H]2CO)c1,inactive: 0.97
